In PMC8427838:
These are yes or no findings as the source states them, for the method shown. Binding seen in cells or lysates may run through a third protein. Some results given as binding are weak or reduced against the parent protein; the word gives no strength. For part of these data: Sequences can lack the tags named with a protein. Blank lines part the entries; values can stand above or below the molecule they belong to.

Sequences of proteins named here, by UniProt entry; tags and fusion partners are left off. A change or cut given only in a name is not applied to a line headed by its entry. A line that says so, or that is headed by a name, gives the form on record, which may keep a tag or linker. Residues count along the entry.
UniProt P26038: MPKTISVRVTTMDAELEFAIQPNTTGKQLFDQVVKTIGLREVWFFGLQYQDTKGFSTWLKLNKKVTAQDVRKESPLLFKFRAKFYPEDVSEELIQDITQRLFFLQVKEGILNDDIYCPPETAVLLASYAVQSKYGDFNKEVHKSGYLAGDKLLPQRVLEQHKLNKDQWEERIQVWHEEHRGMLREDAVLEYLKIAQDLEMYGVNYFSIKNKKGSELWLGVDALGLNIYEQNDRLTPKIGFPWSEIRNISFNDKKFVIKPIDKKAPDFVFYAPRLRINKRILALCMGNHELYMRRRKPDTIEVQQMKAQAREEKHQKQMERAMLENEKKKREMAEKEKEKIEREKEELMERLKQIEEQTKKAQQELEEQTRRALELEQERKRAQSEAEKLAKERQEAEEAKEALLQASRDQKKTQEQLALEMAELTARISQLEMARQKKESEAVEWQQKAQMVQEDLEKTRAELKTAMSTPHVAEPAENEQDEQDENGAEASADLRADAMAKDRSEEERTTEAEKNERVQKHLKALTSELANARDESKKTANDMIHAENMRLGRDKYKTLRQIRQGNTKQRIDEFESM
GST-FERM-moesin (N-terminal FERM domain of moesin fused to GST): residues 2-295 of P26038
UniProt P15311: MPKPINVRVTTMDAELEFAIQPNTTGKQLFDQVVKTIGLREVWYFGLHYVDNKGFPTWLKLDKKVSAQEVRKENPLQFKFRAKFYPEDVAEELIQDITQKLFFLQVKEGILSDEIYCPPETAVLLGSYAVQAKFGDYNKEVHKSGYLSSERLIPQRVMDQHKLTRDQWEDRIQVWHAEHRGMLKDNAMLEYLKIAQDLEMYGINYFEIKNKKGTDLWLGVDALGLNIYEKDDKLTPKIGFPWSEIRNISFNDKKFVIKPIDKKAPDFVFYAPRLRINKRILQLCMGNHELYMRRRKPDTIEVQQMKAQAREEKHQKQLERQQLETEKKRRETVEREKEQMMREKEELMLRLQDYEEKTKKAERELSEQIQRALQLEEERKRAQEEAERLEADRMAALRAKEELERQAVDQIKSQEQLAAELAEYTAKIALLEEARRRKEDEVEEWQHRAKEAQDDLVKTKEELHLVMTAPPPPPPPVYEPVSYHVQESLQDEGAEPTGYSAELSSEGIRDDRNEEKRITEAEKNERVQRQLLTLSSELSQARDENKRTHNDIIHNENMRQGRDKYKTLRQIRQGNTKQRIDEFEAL

Assays:
[1] = biological target: T1, GST-TMIGD1 (GST fusion of the cytoplasmic domain of human TMIGD1) (human) (UniProt Q6UXZ0); experiment: pull-down; immobilised GST fusion proteins incubated with normalized whole-cell lysates of HEK-293 cells, rocking 3 h at 4 °C; western blot (anti-GFP or anti-Myc); only the target purified
T1 sequence: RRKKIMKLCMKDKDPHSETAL

[2] = biological target: T2, GST-4A-TMIGD1 (GST fusion of the TMIGD1 cytoplasmic domain with R242, R243, K244, K245 mutated to alanine) (human) (UniProt Q6UXZ0); experiment: as above
T2 sequence: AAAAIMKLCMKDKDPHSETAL

[3] = biological target: T3, TMIGD1 expressed in 786-0 cells (human) (UniProt Q6UXZ0); experiment: co-IP; whole cell lysates of 786-0 cells expressing EV or TMIGD1 immunoprecipitated with anti-TMIGD1 antibody; western blot with anti-moesin antibody
T3 sequence: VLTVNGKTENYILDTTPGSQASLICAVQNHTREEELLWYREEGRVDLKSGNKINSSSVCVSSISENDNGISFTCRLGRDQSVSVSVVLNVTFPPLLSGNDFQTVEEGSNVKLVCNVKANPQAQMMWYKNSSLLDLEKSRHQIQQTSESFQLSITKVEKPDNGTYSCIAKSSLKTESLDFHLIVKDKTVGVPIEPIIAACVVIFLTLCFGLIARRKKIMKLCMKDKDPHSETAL

[4] = biological target: GST-FERM-moesin (N-terminal FERM domain of moesin fused to GST) (human) (UniProt P26038); experiment: pull-down; immobilised GST fusion proteins incubated with normalized whole-cell lysates of HEK-293 cells, rocking 3 h at 4 °C; western blot (anti-GFP or anti-Myc); only the target purified

binding [1]: binds | binding [2]: no binding
Molecule: moesin-GFP (from UniProt P26038 1-577)

binding [3]: binds
Molecule: moesin (endogenous, 786-0 renal carcinoma cells) (from UniProt P26038 1-577)

binding [1]: binds | binding [2]: no binding
Molecule: ezrin-GFP (from UniProt P15311 1-586)

binding [4]: binds
B1: TMIGD1-Myc (protein, UniProt Q6UXZ0 30-262)
chain: T3 sequence
